Measurements as given in publication PMC4336329 (PLoS ONE, 2015).
Out of some 310,000 compounds screened, about 14,000 (4.5%) showed an effect of 50% or more. Effects have a minus sign here. Some of the results follow. Where a SMILES comes first, the peptide text is derived from it. [ ]: non-standard residue; d: D form. pGlu = O=C1CC[C@@H](C(=O)O)N1; Thz = O=C(O)[C@@H]1CSCN1

target: human ether-à-go-go-related gene (hERG) potassium channel (human, UniProt Q12809); assay: primary screen, population patch clamp on CHO cells stably expressing hERG
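Also: peak tail current of the secondary pulse compared with the same well before compound.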

human ether-à-go-go-related gene (hERG) potassium channel, sequence (Q12809 whole entry, looked up): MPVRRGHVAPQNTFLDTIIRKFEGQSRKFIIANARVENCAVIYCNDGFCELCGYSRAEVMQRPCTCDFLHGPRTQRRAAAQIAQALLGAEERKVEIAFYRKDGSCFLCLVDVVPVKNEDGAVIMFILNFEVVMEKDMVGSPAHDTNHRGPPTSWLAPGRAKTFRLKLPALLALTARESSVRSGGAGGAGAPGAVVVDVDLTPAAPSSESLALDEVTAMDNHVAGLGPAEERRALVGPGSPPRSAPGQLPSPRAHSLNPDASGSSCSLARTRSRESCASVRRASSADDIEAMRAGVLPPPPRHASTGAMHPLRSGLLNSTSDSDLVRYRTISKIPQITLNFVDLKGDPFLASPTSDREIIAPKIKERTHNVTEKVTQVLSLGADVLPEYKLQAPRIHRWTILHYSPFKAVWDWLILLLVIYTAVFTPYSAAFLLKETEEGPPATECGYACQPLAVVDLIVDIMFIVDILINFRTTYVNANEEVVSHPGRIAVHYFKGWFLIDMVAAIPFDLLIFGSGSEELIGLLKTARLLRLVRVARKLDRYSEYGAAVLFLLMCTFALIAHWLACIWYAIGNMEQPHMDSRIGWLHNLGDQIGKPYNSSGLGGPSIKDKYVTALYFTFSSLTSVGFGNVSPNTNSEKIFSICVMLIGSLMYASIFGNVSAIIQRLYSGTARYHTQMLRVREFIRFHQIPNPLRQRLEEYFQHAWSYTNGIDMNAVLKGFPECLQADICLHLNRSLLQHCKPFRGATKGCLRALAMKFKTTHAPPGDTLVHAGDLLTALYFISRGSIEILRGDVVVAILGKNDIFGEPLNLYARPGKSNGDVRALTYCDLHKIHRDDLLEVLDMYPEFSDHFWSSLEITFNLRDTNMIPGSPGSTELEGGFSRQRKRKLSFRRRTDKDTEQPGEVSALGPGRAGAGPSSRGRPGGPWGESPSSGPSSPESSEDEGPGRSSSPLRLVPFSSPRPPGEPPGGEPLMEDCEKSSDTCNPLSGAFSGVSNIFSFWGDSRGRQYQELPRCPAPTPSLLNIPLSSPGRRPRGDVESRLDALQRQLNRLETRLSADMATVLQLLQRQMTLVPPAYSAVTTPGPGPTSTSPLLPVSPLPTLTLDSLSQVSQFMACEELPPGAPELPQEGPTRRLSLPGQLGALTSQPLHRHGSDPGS

SMILES	hERG current change (%, negative = inhibition) at 10uM [%]
COc1ccc(CNC(=O)C2CCCN(S(=O)(=O)c3ccc(F)cc3)C2)cc1 (centres unmarked)	7.46
C/C(=N\NC(=O)c1ccccc1F)c1cccc(NC(=O)c2ccc(C)cc2)c1	13.1
O=C(NC1(C(F)(F)F)NC(=O)N(Cc2cccnc2)C1=O)c1ccccc1Cl (centres unmarked)	-1.06
O=C(COC(=O)c1cccnc1Cl)c1ccc(F)cc1	15.5
COc1ccc(NC2=NCC(C)S2)cc1 (centres unmarked)	8.03
COc1cccc(CNc2ccc(N3CCC(C)CC3)cc2)c1OC	14.7
COc1ccccc1CCNC(=O)C(=O)c1cn(CC(=O)N2CCOCC2)c2ccccc12	-2.82
O=C(Nc1nccs1)c1ccc(-c2ccccc2Cl)o1	9.26
Cc1cccc(C(=O)OCC(=O)NC(=O)Cc2ccccc2)c1O	13.8
O=C1CC[C@@H](C(=O)N2CSC[C@H]2C(=O)O)N1 ([pGlu]-[Thz]-OH)	15.5
Cc1cc2ncc(-c3cccs3)nc2cc1C	19.3
O=C(c1cccs1)N1CCN(c2nnc(-c3ccccc3)c3ccccc23)CC1	-76.5
CN=C1SC(CC(=O)Nc2ccc(F)cc2F)C(=O)N1/N=C/c1ccc(OC(F)F)c(OC)c1 (centres unmarked)	13.2
COc1cc(/C=N/N2CCCCC2)cc([N+](=O)[O-])c1O	20.8
CCN(C(=O)COC(=O)c1cccnc1Nc1cccc(C(F)(F)F)c1)C1CCS(=O)(=O)C1 (centres unmarked)	-51
Cc1ccc(N(Cc2ccccc2)C(=O)c2ccc(C)c(S(=O)(=O)N3CCOCC3)c2)cc1	-18
COc1ccc(CCNC2=NCCS2)cc1	-2.59
COc1ccc(C(=O)COC(=O)Cn2[nH]c(=O)c3ccccc3c2=O)c(OC)c1	13.3
CCn1cc(C(=O)NCc2ccco2)c(=O)c2cc(S(=O)(=O)N3CC(C)CC(C)C3)ccc21 (centres unmarked)	-7.3
COc1ccccc1N1CCN(/N=C/C=C\c2ccco2)CC1	-2.4
CCC(=O)NC1(C(F)(F)F)C(=O)Nc2c1c(=O)n(C)c(=O)n2C (centres unmarked)	7.22
O=c1c(Cc2ccccc2)c(O)ccn1CCc1cnc[nH]1	27.3
O=C(O)c1cc(-c2ccc3ccccc3c2)nc2ccc(F)cc12	34.9

SMILES	hERG current change (%, negative = inhibition) at 10uM [%]
O=C(CNC(=O)c1ccc(Br)o1)NNC(=O)c1n[nH]c(=O)c2ccccc12	8.88
O=C(c1ccccc1SCc1ccccc1)N1CCCCCC1	-18.3
COc1cc2ccccc2cc1C(=O)Nc1ccccc1N1CCN(S(C)(=O)=O)CC1	6.35
CCOC(=O)C1CCCN(Cc2cn[nH]c2-c2ccc(F)cc2F)C1 (centres unmarked)	-2.03
COC(=O)[C@@H](NC(=O)NC1CCCCC1C)C(C)C (some centres unmarked)	0.868
CSc1ccccc1OCc1cc(C(=O)NCc2csc(C(C)C)n2)no1	-9.57
CCOC(=O)N1CCN(C(=O)CN(c2ccc(OC)c(OC)c2)S(C)(=O)=O)CC1	-6.26
CCOC(=O)CSC1=C(C#N)C(c2sccc2C)C(C(C)=O)=C(C)N1 (centres unmarked)	-1.98
CCOC(=O)c1cnc(SCC(=O)c2ccc(Cl)cc2)nc1N	17.9
Nc1nnc(-c2ccccc2[N+](=O)[O-])o1	10.9
CC(C)c1ccc(/C=C(\NC(=O)c2ccccc2)C(=O)NCCN2CCOCC2)cc1	-61
COc1ccccc1N1C(=O)c2ccc(C(=O)Nc3ccc(F)cc3)cc2C1=O	1.07
Cn1c(SCC(=O)Nc2ccc(NC(=O)c3ccccc3F)cc2)nnc1-c1ccncc1	16.2
Cc1ccc(CNS(=O)(=O)c2cc3c(cc2C)N(C)CCO3)cc1	-12.3
CN1CCN(C(c2ccccc2)c2ccccc2)CC1.Cl	-12.1
Cc1ccc(CNC(=O)CCn2c(=O)oc3ccccc32)cc1	0.00948
CCOP(=O)(c1ccccc1)C1(C#N)CC1 (centres unmarked)	9.74
CCc1c(C#N)c(SCCC(=O)Nc2ccc(F)cc2)nc2c1C(=O)CC(C)(C)C2	10.4
CCC(C)NCC(O)COCc1ccc(Cl)cc1.Cl (centres unmarked)	-9.92
O=C(NCCNC(=O)c1ccc(F)cc1)c1ccc(F)cc1	0.397
CNc1cc(-n2nc(C)cc2-c2ccccc2)ncn1	11
CC(C)CN(C(=O)c1ccc(=O)n(C)n1)c1c(N)n(Cc2ccccc2)c(=O)[nH]c1=O	7.23
Nn1c(SCC(=O)Nc2cccnc2Cl)nnc1-c1ccccc1	7.24

SMILES	hERG current change (%, negative = inhibition) at 10uM [%]
CCC1=C(OC(=O)N(CC)CC)N2C(=O)OC(=NCC(=O)OC)[C@]2(Cc2ccccc2)[C@H]2C1=CC[C@H]1C(=O)NC(=O)[C@H]12	9.2
COCCCNC(=O)COc1cc(C)c(Cl)c(C)c1	-3.99
COc1cc(NC(=O)C(C)Oc2ccccc2)c(C(=O)O)cc1OC (centres unmarked)	16.1
CC(C)C(=O)Nc1ccnc(-c2cccnc2)n1	-1.77
CC1CN(C(=S)Nc2ccc(SC(F)F)cc2)CC(C)O1 (centres unmarked)	-27.6
COc1ccc(-n2c(SCC(=O)C(C)(C)C)nc3c(sc(=S)n3-c3ccccc3)c2=O)c(OC)c1	21.3
COCC(C)NC(=O)c1cc2cccc([N+](=O)[O-])c2[nH]1 (centres unmarked)	11.9
CC(=O)C1C(c2ccco2)c2c(noc2C)CC1(C)O (centres unmarked)	0.959
CC1CCC/C(=N\NC(=O)c2ccncc2)C1 (centres unmarked)	13.3
COc1cccc(CNS(=O)(=O)c2c(C(=O)N3CCCCCC3)c(C)n(C)c2C)c1	-8.55
O=S(=O)(NCCSc1ccc(Cl)cc1)c1ccc2c(c1)OCCO2	-11.6
Cn1c(=O)c2c(nc(SCC(=O)O)n2Cc2cccc(C(F)(F)F)c2)n(C)c1=O	-10.2
O=c1[nH]nc(Cc2ccc(-c3cccc(Cl)c3)o2)c2ccccc12	6.41
O=c1c2[nH]c3ccccc3c2nc2n1CCCS2	-27
COc1ccc(CNC(=O)CN2C(=O)NC(C)(c3ccc(Cl)cc3)C2=O)cc1 (centres unmarked)	-8.82
O=C(Nc1ccc(N2CCN(Cc3ccccc3)CC2)cc1)c1cccnc1	-14.4
COc1ccc(CC(=O)N2CCN(c3ccccc3OC)CC2)cc1	13.2
O=C(O)c1cccc(N/N=C/c2cn(-c3ccccc3)nc2-c2cccs2)c1	8.16
COc1ccccc1/C=C/CN1CCCC(CCC(=O)NCc2ccccc2F)C1 (centres unmarked)	-65.7
COc1ccccc1CNC(=O)c1ccc(SC)cc1OC	-32.7
COc1ccc(C)cc1NC(=O)CN1c2cccc3cccc(c23)S1(=O)=O	1.3
N/C(CC1CC1(Cl)Cl)=N\OC(=O)c1ccccc1 (centres unmarked)	3.68
CCCC(=O)Nc1nn(CC(C)C)c2nc3cc(C)ccc3cc12	19.4

SMILES	hERG current change (%, negative = inhibition) at 10uM [%]
Cc1ccc(C(=O)N2CCCC(C(=O)c3cc(F)ccc3F)C2)s1 (centres unmarked)	-19.4
CCOc1ccc(N2Cc3ncccc3C2=O)cc1	-7.23
NNC(=O)c1[nH]c2ccc(Cl)cc2c1-c1ccccc1	6.15
Cc1ccc(NC(=O)c2ccc(Nc3c([N+](=O)[O-])cc([N+](=O)[O-])cc3[N+](=O)[O-])cc2)cc1	1.02
COc1ccc(C(=O)NNC(=O)c2ccc3ccccc3n2)cc1	-42.9
COc1cc(-c2nnc(COC(=O)c3cc(C)nc4ccc(C)cc34)o2)cc(OC)c1OC	-11.1
COc1ccc(Cl)cc1C(=O)NCCN1CCOCC1	-2.2
CCSc1ncc(Cl)c(C(=O)Nc2ccccc2)n1	-23.9
COc1ccc(CCNC(=O)CN(CCc2ccccc2)S(C)(=O)=O)cc1OC	13.9
Cc1cc(=S)cc(C)n1CCCO	8.18
Cc1ccc(OCC(=O)Nc2cc(S(=O)(=O)N3CCCCC3)ccc2C)c([N+](=O)[O-])n1	-7.58
CCC(c1nnc(SCCNCCO)n1CCN1CCOCC1)N(C)C.O=C(O)C(=O)O (centres unmarked)	21
COc1ccc(C(=O)O/N=C2\CCS(=O)(=O)c3sccc32)cc1	8.4
Cc1ccc(C)c(S(=O)(=O)N2CCCC2CNC(=O)C(=O)NCc2ccco2)c1 (centres unmarked)	-54.2
CC12CC(O)C3c4ccc(O)cc4CCC3C1CC/C2=N\O (centres unmarked)	3.28
CCOC(=O)c1[nH]c2ccc(C)cc2c1N	10.9
O=C(O)c1ccccc1/C=N/NC(=O)c1cc(-c2ccco2)nc2ccccc12	9.43
CN(Cc1ccccc1)C(=O)CSc1nc2ccccc2[nH]1	6.53
O=C1C2C3C=CC(CC3)C2C(=O)N1/N=C/c1ccc(O)c(O)c1 (centres unmarked)	-30.7
COC(=O)CSC1=C(C#N)C(c2cccc(OC)c2)CC(=O)N1 (centres unmarked)	5.43
